The chains are these.
B1: TEV protease; numbered along this chain (parent)
chain: MGESLFKGPRDYNPISSSICHLTNESDGHTTSLYGIGFGPFIITNKHLFRRNNGTLVVQSLHGVFKVKDTTTLQQHLVDGRDMIIIRMPKDFPPFPQKLKFREPQREERICLVTTNFQTKSMSSMVSDTSCTFPSGDGIFWKHWIQTKDGQCGSPLVSTRDGFIVGIHSASNFTNTNNYFTSVPKNFMELLTNQEAQQWVSGWRLNADSVLWGGHKVFMVKPEEPFQPVKEATQL

This is one part of the list. Sequences were assembled here from the parent chain. Inactive controls read about 0.05.

This is an account of results in the supplement of paper PMC12217912.
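Also: Bxb1 expression induced with 0.2% (w/v) L-rhamnose at OD600 near 0.5, cultures sampled hourly, flipped fraction per protease–substrate barcode pair counted by paired-end Illumina sequencing.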

This assay covers variants of B1. In words: raw area under fraction-flipped curve 0-4 h after induction (AUC4h, not background-subtracted), DNA-recorder readout of cleavage of the substrate (dimensionless); higher = more cleavage of the substrate by the protease variant. Conditions: temperature: 34 °C; time window: 0-4 h after rhamnose induction.
Turning to MGESLFKGPRDYNPISSSICHLTNESDGHTTSLYGIGFGPFIITNKHLFRRNNGTLVVQSLHGVFKVKDTTTLQQHLVDGRDMIIIRMPKDFPPFPQKLKFREPQREERICLVTTNFQTKSMSSMVSDTSYTFPSGDGIFWKHWIQTKDGQCGSPLVSTRDGFIVGIHSASNFTNTNNYFTSVPKNFMELLTNQEAQQWVSGWRLNADSVLWGGHKVFMVKPEEPFQPVKEATQL [C131Y], the “area with substrate EQLYFQS” value worked out at 0.0876, the “area with substrate ERLYFQS” value turned out to be 0.134, the “area with substrate ESLYFQS” value worked out at 0.11 and the “area with substrate EYLYFQS” value amounted to 0.14.
MGESLFKGPRDYNPISSSICHLTNESDGHTTSLYGIGFGPFIITNKHLFRRNNGTLVVQSLHGVFKVKDTTTLQQHLVDGRDMIIIRMPKDFPPFPQKLKFREPQREERICLVTTNFQTKSMSSMVSDTSCTFPSGDGIFWKHWIQTKDGQCGSPLVSTRDGFIVGIHSASNFTNTNNYFTSVPKNFMELLTNQERQQWVSGWRLNADSVLWGGHKVFMVKPEEPFQPVKEATQL [A196R]: the “area with substrate ESLYFQS” value worked out at 0.108 and the “area with substrate ETLYFQS” value stood at 0.127.
Regarding MGESLFKGPRDYNPISSSICHLTNESDGHTTSLYGIGFGPFIITNKHLFRRNNGTLVVQSLHGVFKVKDTTTLQQHLVDGRDMIIIRMPKDFPPFPQKLKFREPQREERICLVTTNFQTKSMSSMVSDTSCTFPSGDGIFWKHWIQTKDGQCGSPLVSTRDGFIVGIHSASFFTNTNNYFTSVPKNFMELLTNQEAQQWVSGWRLNADSVLWGGHKVFMVKPEEPFQPVKEATQL [N172F], the “area with substrate EMLYFQS” value was 0.0741, the “area with substrate ERLYFQS” value came to 0.0415, the “area with substrate ESLYFQS” value turned out to be 0.0576 and the “area with substrate EWLYFQS” value was 0.0707. In addition, the “area with substrate EYLYFQS” value worked out at 0.055.
Take MGESLFKGPRDYNPISSSICHLTNESDGHTTSLYGIGFGPFIITNKHLFRRNNGTLVVQSLHGVFKVKDTTTLQQHLVDGRDMPIIRMPKDFPPFPQKLKFREPQREERICLVTTNFQTKSMSSMVSDTSCTFPSGDGIFWKHWIQTKDGQCGSPLVSTRDGFIVGIHSASNFTNTNNYFTSVPKNFMELLTNQEAQQWVSGWRLNADSVLWGGHKVFMVKPEEPFQPVKEATQL [I84P]: the “area with substrate EWLYFQS” value came out at 0.0243 and the “area with substrate EYLYFQS” value came to 0.0325.
MGESLFKGPRDYNPISSSICHLTNESDGHTTSLYGIGFGPFIITNKHLFRRNNGTLVVASLHGVFKVKDTTTLQQHLVDGRDMIIIRMPKDFPPFPQKLKFREPQREERICLVTTNFQTKSMSSMVSDTSCTFPSGDGIFWKHWIQTKDGQCGSPLVSTRDGFIVGIHSASNFTNTNNYFTSVPKNFMELLTNQEAQQWVSGWRLNADSVLWGGHKVFMVKPEEPFQPVKEATQL [Q59A]: the “area with substrate EMLYFQS” value came to 0.128, the “area with substrate EPLYFQS” value came out at 0.147, the “area with substrate EQLYFQS” value was 0.113 and the “area with substrate ERLYFQS” value came to 0.117. Besides, the “area with substrate EVLYFQS” value was found to be 0.0815.
With MGESLFKGPRDYNPISSSICHLTNESDGHTTSLYGIGFGPFIITNKHLFRRNNGTLVVQSLHGVFKVKDTTTLQQHLVDGRDMIIIRMPKDFPPFPQKLKFREPQREERICLVTTNFQTKSMSSMVSDTSCTFPSGDGIFWKHWIQTKDGQCGSPLVSTRDGFIVGIHSASNFTNTNNYFTSVPKNFMELLTNQEAQQWVSGWRLNADSVLWGGHKRFMVKPEEPFQPVKEATQL [V217R], the “area with substrate ERLYFQS” value came out at 0.065, the “area with substrate ESLYFQS” value is 0.0584 and the “area with substrate EWLYFQS” value turned out to be 0.0461.
For MGESLFKGPRDYNPISSSICHLTNESDGHTTSLYGIGFGPFIITNKHLFRRNNGTLVVQSLHGVFKVKDTTTLQQHLVDGRDMIIIRMPKDFPPFPQKLKFREPQREERICLVTTNFQTKSMSSMVSDTSCTFPSGDGIFWKHWIQTKDGQCGSPLVSTRDGFIVGIHSASNFTNTNNYFTSVPKNFMELLTNQEAQQWVSGWRLAADSVLWGGHKVFMVKPEEPFQPVKEATQL [N206A], the “area with substrate EVLYFQS” value came out at 0.079.
On to MGESLFKGPRDYNPISSSICHLTNESDGHTTSLYGIGFGPFIITNKHLFRRNNGTLVVQSLHGVFKVKDTTTLQQHLVDGRDMIIIRMPKDFPPFPQKLKFREPQREERICLVTTNFQTKSMSSMVSDTSCTFPSGDGIFWKHWIQTKDGQCGSPLVSTRDGFIVGIHSASNFTNTNWYFTSVPKNFMELLTNQEAQQWVSGWRLNADSVLWGGHKVFMVKPEEPFQPVKEATQL [N178W], for which the “area with substrate EMLYFQS” value turned out to be 0.135.
Turning to MGESLFKEPRDYNPISSSICHLTNESDGHTTSLYGIGFGPFIITNKHLFRRNNGTLVVQSLHGVFKVKDTTTLQQHLVDGRDMIIIRMPKDFPPFPQKLKFREPQREERICLVTTNFQTKSMSSMVSDTSCTFPSGDGIFWKHWIQTKDGQCGSPLVSTRDGFIVGIHSASNFTNTNNYFTSVPKNFMELLTNQEAQQWVSGWRLNADSVLWGGHKVFMVKPEEPFQPVKEATQL [G8E], the “area with substrate EQLYFQS” value came out at 0.127 and the “area with substrate EYLYFQS” value is 0.133.
